“And” between values parts separate entries of the source, which are not always exact repeats. Identical values can stand only once. Inconclusive results, whose numbers are uncertain, are shown with a selection of clear calls. For some of these results: Where the call is inconclusive, the potency comes from a doubtful curve fit. The source made the active and inactive calls. Unless noted, the call rests on the fitted dose curve; in most records, active means well fitted curve in the direction sought with a large enough effect; inconclusive means small, poorly fitted or top-dose-only effect, or another doubt; inactive means no such curve, though single readings can be large; an effect the other way counts as inactive or inconclusive.
Assays:
[1] = qHTS to identify inhibitors of the type 1 interferon - major histocompatibility complex class I in skeletal muscle: primary screen against the NCATS Mechanism Interrogation Plate v5.0 (MIPE) Libary (AID 1347411); conditions: iHSKM cells + IFN-b, HiBiT-tagged MHC-I luminescence, 24 h; series mostly up to 45.8 µM; further: nearly all actives have a fitted effect of over 65% in size
Summary of the method: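 Seed engineered human myoblasts (HLA-B HiBit) in medium without dexamethasone containing 4 ng/ml IFN-beta; after 1 hr add compound titrations (top 46 uM final). Incubate 24 hrs at 37 C, lyse 10 min with HiBiT reagent, read luminescence.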

[2] = target: Cytochrome P450 2C9 (Homo sapiens) (UniProt P11712); experiment: Cytochrome P450 family 2 subfamily C member 9 (CYP2C9) small molecule antagonists: luciferase biochemical (cell-free) qHTS assay (AID 1645842; active means well fitted curve in the direction sought with a large enough effect in the repeat runs; inconclusive means weak or mixed curves; inactive means no such curve, though single readings can be large; an effect the other way counts as inactive or inconclusive; further: nearly all actives have a fitted effect of over 55% in size)
UniProt P11712, sequence (P11712 whole entry, looked up): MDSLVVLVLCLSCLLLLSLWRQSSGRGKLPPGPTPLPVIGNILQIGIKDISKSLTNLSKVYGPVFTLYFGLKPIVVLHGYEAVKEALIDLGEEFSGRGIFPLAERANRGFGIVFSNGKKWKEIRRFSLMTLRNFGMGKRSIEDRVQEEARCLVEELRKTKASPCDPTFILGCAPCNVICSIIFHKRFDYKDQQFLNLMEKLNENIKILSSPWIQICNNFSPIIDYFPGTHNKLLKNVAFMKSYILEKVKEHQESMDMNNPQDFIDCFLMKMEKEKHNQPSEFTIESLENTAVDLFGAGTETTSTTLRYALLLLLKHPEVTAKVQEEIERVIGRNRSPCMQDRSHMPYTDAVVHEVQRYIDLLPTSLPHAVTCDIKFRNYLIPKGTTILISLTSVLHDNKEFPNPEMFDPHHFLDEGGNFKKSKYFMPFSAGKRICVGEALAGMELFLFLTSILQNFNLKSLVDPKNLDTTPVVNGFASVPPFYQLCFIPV
Summary of the method: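 P450-Glo CYP2C9 system: proluciferin substrate with enzyme in mix containing 0.4% BSA, 10 min at room temperature, then NADPH regeneration solution added and incubated 1 h at 37C. Detection reagent stopped reaction; luminescence read after 20 min as RLU.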

[3] = Primary qHTS for inhibitors of nuclear receptor binding SET domain protein 2 (NSD2) in an RCH-ACV wild type WT cells (2C) (AID 1645877); conditions: activity change, negative = cell killing: at 44.9 µM (top of the series) unless noted; further: nearly all actives have a fitted effect of over 70% in size
[4] = Primary fluorescence-based thiol-reactive (MSTI) qHTS assay for identification of artifact compounds. (AID 1845221);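 further: thiol-reactive compounds lower the probe fluorescence signal; nearly all actives have a fitted effect of over 65% in size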
Summary of the method: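 One-hour, room-temperature, dark incubation of compound with 4 uM MSTI in PBS (pH 7.4, 2% DMSO) precedes a fluorescence read at 525 nm excitation, 598 nm emission; Hill-equation fitting yields concentration-response values.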

HaCat = experiment: Cytotoxic Profiling of Annotated Libraries Using Quantitative High-Throughput Screening (AID 1296008); conditions: Five cell lines viability, CellTiter-Glo ATP luminescence, 48-72 h; max response: stronger effect = lower value; further: nearly all actives have a fitted effect of over 60% in size
Summary of the method: (§1)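 Compounds were pin-transferred onto cells and incubated 48 or 72 hr at 37 degree Celsius, 95% humidity. CellTiter-Glo was added, plates sat 10 min at room temperature, then ATP-coupled luminescence was imaged as the viability read-out.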

KB-3-1 = experiment: as above; conditions: Five cell lines viability, CellTiter-Glo ATP luminescence, 48-72 h; max response: stronger effect = lower value
Summary of the method: as §1

NIH3T3 = experiment: as above; conditions: Five cell lines viability, CellTiter-Glo ATP luminescence, 48-72 h; max response: stronger effect = lower value
Summary of the method: as §1

C33A = experiment: Primary qHTS to identify gynecologic anti-cancer compounds using libraries of approved drugs and bioactive compounds (AID 1345084); conditions: Gynecologic cancer cell panel viability, ATPlite luminescence, 48 h; series mostly up to 57.5 µM; further: nearly all actives have a fitted effect of over 55% in size
Summary of the method: (§2)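 In this quantitative HTS, cell killing is estimated from loss of ATP-dependent luciferase light. Cells see five compound concentrations over a 48 h exposure.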

CAOV3 = experiment: as above; conditions: Gynecologic cancer cell panel viability, ATPlite luminescence, 48 h; activity change, negative = cytotoxicity: at 57.5 µM (top of the series)
Summary of the method: as §2

CASKI = experiment: as above; conditions: Gynecologic cancer cell panel viability, ATPlite luminescence, 48 h; series mostly up to 57.5 µM
Summary of the method: as §2

Es-2 = experiment: as above; conditions: Gynecologic cancer cell panel viability, ATPlite luminescence, 48 h; series mostly up to 57.5 µM
Summary of the method: as §2

HeLa = experiment: as above; conditions: Gynecologic cancer cell panel viability, ATPlite luminescence, 48 h; activity change, negative = cytotoxicity: at 57.5 µM (top of the series)
Summary of the method: as §2

Hek293T = experiment: as above; conditions: Gynecologic cancer cell panel viability, ATPlite luminescence, 48 h, control line for the selectivity index; activity change, negative = cytotoxicity: at 57.5 µM (top of the series) unless noted
Summary of the method: as §2

JEG-3 = experiment: as above; conditions: Gynecologic cancer cell panel viability, ATPlite luminescence, 48 h; series mostly up to 57.5 µM
Summary of the method: as §2

OV90 = experiment: as above; conditions: Gynecologic cancer cell panel viability, ATPlite luminescence, 48 h; series mostly up to 57.5 µM
Summary of the method: as §2

PA-1 = experiment: as above; conditions: Gynecologic cancer cell panel viability, ATPlite luminescence, 48 h; series mostly up to 57.5 µM
Summary of the method: as §2

SKOV3 = experiment: as above; conditions: Gynecologic cancer cell panel viability, ATPlite luminescence, 48 h; series mostly up to 57.5 µM
Summary of the method: as §2

Tov-21-G = experiment: as above; conditions: Gynecologic cancer cell panel viability, ATPlite luminescence, 48 h; activity change, negative = cytotoxicity: at 57.5 µM (top of the series) unless noted
Summary of the method: as §2

Tov112D = experiment: as above; conditions: Gynecologic cancer cell panel viability, ATPlite luminescence, 48 h; series mostly up to 57.5 µM
Summary of the method: as §2

[5] = qHTS assay to identify inhibitors of the type 1 interferon - major histocompatibility complex class I in skeletal muscle: Counter screen cell viability and HiBit confirmation (AID 1347412); conditions: iHSKM muscle cells + IFN-b, HiBiT or CellTiter-Glo, 24 h; HiBiT; further: nearly all actives have a fitted effect of over 60% in size
Summary of the method: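 Myoblasts (C25cl48, HLA-B HiBiT) seeded in medium without dexamethasone, IFN-b 4 ng/ml added except unstimulated columns; 1 hr later compounds pinned (12-pt 1:3, top 46 uM final). Incubated 24 hrs, lysed 10 min, luminescence measured.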
Potency means the concentration at half of the fitted maximal effect; tags describe the fitted curve by direction and shape.

| SMILES | Potency [1] | Potency [2] | Potency [3] | Potency [4] | Potency (HaCat) | Potency (KB-3-1) | Potency (NIH3T3) | Potency (C33A) | Potency (CAOV3) | Potency (CASKI) | Potency (Es-2) | Potency (HeLa) | Potency (Hek293T) | Potency (JEG-3) | Potency (OV90) | Potency (PA-1) | Potency (SKOV3) | Potency (Tov-21-G) | Potency (Tov112D) | Potency [5] |
| --- | --- | --- | --- | --- | --- | --- | --- | --- | --- | --- | --- | --- | --- | --- | --- | --- | --- | --- | --- | --- |
| C=CC(=O)Nc1cccc(Nc2nc(Nc3ccc(N4CCN(C(C)=O)CC4)cc3OC)ncc2C(F)(F)F)c1 | inconclusive: 8.29 µM [inhibitor, partial curve] | inconclusive: 23.9 µM [inhibitor, single point] | active: 2.9 µM and inconclusive: 2.95 µM [inhibitor, full curve] | active: 2.99 µM | active: 2.91 µM | active: 11.6 µM | inconclusive: 1.64 µM [inhibitor, full curve] | inconclusive: 12.6 µM [cytotoxic, partial curve] | inconclusive: 10 µM [cytotoxic, partial curve, poor fit] | inconclusive: 17.8 µM [cytotoxic, partial curve, poor fit] | inactive | inconclusive: 39.8 µM [cytotoxic, single point] | inconclusive: 10 µM [cytotoxic, partial curve] | inconclusive: 22.4 µM [cytotoxic, single point] | active: 15.8 µM | inconclusive: 15.8 µM [cytotoxic, partial curve, poor fit] | inconclusive: 10 µM [cytotoxic, partial curve, poor fit] | inconclusive: 10 µM [cytotoxic, partial curve] | inconclusive: 22.4 µM [cytotoxic, partial curve] | – |
| CCCCc1nc2cc(/C=C/C(=O)NO)ccc2n1CCN(CC)CC | inconclusive: 0.466 µM [inhibitor, full curve] | – | – | – | inconclusive: 2.91 µM [inhibitor, full curve, poor fit] | active: 1.46 µM | active: 5.17 µM | active: 5.01 µM | active: 8.91 µM | active: 5.62 µM | – | – | active: 3.16 µM | active: 3.16 µM | inconclusive: 1.58 µM [cytotoxic, partial curve, poor fit] | active: 0.631 µM | active: 3.98 µM | active: 7.94 µM | active: 3.16 µM | active: 1.11 µM |

Source: PubChem BioAssay (NCATS)
